Out of some 310,000 compounds screened, about 2,200 (0.71%) showed an effect of 50% or more. The effect is printed as a negative number. The list shows a part of the results.
The compounds below were run against human ether-à-go-go-related gene (hERG) potassium channel (human, UniProt Q12809) (assay: primary screen, population patch clamp on CHO cells stably expressing hERG).
Sequence of human ether-à-go-go-related gene (hERG) potassium channel (Q12809 whole entry, looked up): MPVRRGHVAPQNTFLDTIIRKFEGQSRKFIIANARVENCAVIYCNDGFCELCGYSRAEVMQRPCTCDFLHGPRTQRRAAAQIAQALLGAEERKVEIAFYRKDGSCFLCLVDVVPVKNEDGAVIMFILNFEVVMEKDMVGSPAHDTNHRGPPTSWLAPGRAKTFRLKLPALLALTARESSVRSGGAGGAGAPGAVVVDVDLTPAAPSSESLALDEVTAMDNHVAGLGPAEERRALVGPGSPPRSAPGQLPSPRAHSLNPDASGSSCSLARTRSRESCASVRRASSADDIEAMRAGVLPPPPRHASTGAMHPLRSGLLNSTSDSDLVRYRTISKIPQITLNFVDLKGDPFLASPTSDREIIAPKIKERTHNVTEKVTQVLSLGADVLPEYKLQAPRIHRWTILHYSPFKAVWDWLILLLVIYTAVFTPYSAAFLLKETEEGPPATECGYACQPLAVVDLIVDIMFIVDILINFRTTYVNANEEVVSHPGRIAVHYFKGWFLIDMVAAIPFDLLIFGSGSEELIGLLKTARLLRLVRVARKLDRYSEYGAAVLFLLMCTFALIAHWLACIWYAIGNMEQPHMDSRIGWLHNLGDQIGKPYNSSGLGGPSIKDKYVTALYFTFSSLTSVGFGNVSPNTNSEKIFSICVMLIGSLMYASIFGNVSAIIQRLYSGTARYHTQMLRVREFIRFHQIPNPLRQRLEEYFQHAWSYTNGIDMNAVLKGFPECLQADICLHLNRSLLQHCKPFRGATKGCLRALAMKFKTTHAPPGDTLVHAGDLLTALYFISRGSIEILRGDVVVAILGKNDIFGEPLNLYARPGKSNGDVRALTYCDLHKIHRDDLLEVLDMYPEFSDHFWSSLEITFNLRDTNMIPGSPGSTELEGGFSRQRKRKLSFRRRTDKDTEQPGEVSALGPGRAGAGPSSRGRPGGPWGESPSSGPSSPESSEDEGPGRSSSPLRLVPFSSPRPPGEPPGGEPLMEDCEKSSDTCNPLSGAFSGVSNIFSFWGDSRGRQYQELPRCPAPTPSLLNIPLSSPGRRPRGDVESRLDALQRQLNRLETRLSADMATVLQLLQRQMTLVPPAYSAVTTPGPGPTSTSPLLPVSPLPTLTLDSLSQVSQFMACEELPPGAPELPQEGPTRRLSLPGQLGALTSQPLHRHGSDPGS

Row | SMILES | hERG current change (%, negative = inhibition) at 1uM [%]
1 | COc1cccc(N2CCN(C(=O)CN(C)S(=O)(=O)c3ccc4c(c3)CCC(=O)N4)CC2)c1 | -12
2 | O=C(c1ccccc1)c1c[nH]c2ccccc12 | 12.2
3 | Cc1cc(NC(=O)COc2ccc(Cl)cc2Cl)n(-c2ccccc2)n1 | 8.96
4 | O=S(=O)(CCc1nc2ccccc2s1)c1ccc2ccccc2c1 | 6.61
5 | COc1ccc2c(c1)CCc1c-2n[nH]c1C(=O)NCCC(C)C | 11
6 | COc1ccc(NS(=O)(=O)c2cc(NC(=O)Cc3c(F)cccc3Cl)ccc2OC)cc1 | 16.3
7 | CCc1nnc(NC(=O)CSc2nccn2-c2cc(C)cc(C)c2)s1 | 6.45
8 | Cc1cc(C)cc(NC(=O)C2C3C=CC4(O3)C2C(=O)N(CCN2CCCCC2)C4C(=O)NC2CCCCC2)c1 (centres unmarked) | -6.81
9 | COCCn1c(N)c(C#N)c2nc3ccccc3nc21 | 2.51
10 | O=C(CSc1nnc(Cn2c(=O)sc3ccccc32)n1-c1ccccc1)N1CCCC1 | 2.08
11 | O=C(CNC(=O)C1COc2ccccc2O1)N/N=C\c1ccc(Br)cc1 (centres unmarked) | -7.2
12 | COc1ccc(NC2CCCN(C(=O)CN3CCOC3=O)C2)cc1 (centres unmarked) | 11.1
13 | Cc1ccc(C(=O)NCC(=O)N/N=C/c2cccs2)cc1C | 9.31
14 | COCC(=O)N(Cc1cc2cc(OC)ccc2[nH]c1=O)c1ccccc1 | 11
15 | O=C(CCc1nnc2ccc(N3CCCCC3)nn12)NCc1ccco1 | 10
16 | CC(C)NC(=S)N/N=C/c1ccccc1[N+](=O)[O-] | 7.35
17 | S=C(NCCc1ccc(Cl)cc1)NC1CC1 | 10
18 | CCN(CC(=O)Nc1c(F)cccc1F)C(=O)CNC(=O)c1cccc(C)c1 | 14.7
19 | c1ccc2c(-c3cncc4ccccc34)cncc2c1 | 2.76

Row | SMILES | hERG current change (%, negative = inhibition) at 1uM [%]
20 | CCN(CC)C(=O)Oc1ccnc2cc(Cl)ccc12 | 5.38
21 | CC1CC(C)(C)CC2(C1)NC(=O)N(CC(=O)Nc1cc([N+](=O)[O-])ccc1F)C2=O (centres unmarked) | 10.9
22 | CC(C)Cn1c(N)c(C(=O)CSc2n[nH]c(N)n2)c(=O)n(C)c1=O | 12.3
23 | COCCCNC(=O)c1cc2c(=O)n3cccc(C)c3nc2s1 | 7.68
24 | COc1ccc([N+](=O)[O-])cc1NC(=O)C(C)OC(=O)C1CCCC1 (centres unmarked) | 5.34
25 | Cl.OCCN1CCN(CC(O)COc2ccc3c(c2)OCO3)CC1 (centres unmarked) | 12.3
26 | CC(CNS(=O)(=O)c1ccccc1)Sc1ncccn1 (centres unmarked) | 8.74
27 | CN(Cc1ccccc1)S(=O)(=O)c1ccc2[nH]c(=O)oc2c1 | 13.3
28 | CN(C)S(=O)(=O)c1cc(NC(=O)CN2CCN(c3ccc(O)cc3)CC2)ccc1Cl | 5.17
29 | Nc1nc(Nc2ccccc2)nc(NCc2ccco2)c1[N+](=O)[O-] | 0.925
30 | Cc1[nH]c2ccccc2c1/C=N\NC(=O)Cn1nnc(-c2ccccc2)n1 | 8.74
31 | NC(=S)N/N=C/c1ccccc1OCCSc1ccc(Cl)cc1 | 10.4
32 | CC(C)CN1CCC(CNC(=O)CCc2nnc(Cc3c[nH]c4ccccc34)o2)CC1 | 12
33 | CCCCOc1ccc(C(=O)N/C(=C\c2cccc([N+](=O)[O-])c2)C(=O)OCc2ccco2)cc1 | 15.4
34 | COc1ccc(NC(=O)COC(=O)c2c(C)noc2C)c(OC)c1 | 6.66
35 | COc1ccc(C(=O)NC(C(=O)OCC(=O)Nc2sccc2C(N)=O)C(C)C)cc1 (centres unmarked) | 11.9
36 | O=C(O)C(=O)O.O=C(c1ccccc1)N1CCN(C2CC3CCC2C3)CC1 (centres unmarked) | 5.08
37 | CCn1c(CSc2nc3ccccc3[nH]2)nc2cc(C(=O)O)ccc21 | 16.6
38 | Cc1c(C)c2cc(Cl)c(OCC(=O)N3C[C@H]4C[C@@H](C3)c3cccc(=O)n3C4)cc2oc1=O | 12

Row | SMILES | hERG current change (%, negative = inhibition) at 1uM [%]
39 | COc1ccc(-n2cc(-c3ccccc3)c3c(=S)nc[nH]c32)cc1 | 5.59
40 | O=C1CC(NS(=O)(=O)c2ccc([N+](=O)[O-])cc2)CN1c1cccc(F)c1 (centres unmarked) | -22.3
41 | Cc1nn(C)c(C)c1N1C(=O)c2cccc3c(N)ccc(c23)C1=O | 4.66
42 | O=C(N/N=C/c1cc(Br)cs1)c1c[nH]c2ccccc12 | 11.7
43 | CCCCN(C)C(=O)c1nc2ccccn2c1CN1CCN(c2ccccn2)CC1 | 8.02
44 | CC(=O)c1ccc(S(=O)(=O)N2CCN(CC#N)CC2)cc1 | 11.3
45 | Cc1ccc(C(=O)CSc2nnc(Cn3nnc4ccccc43)n2C)cc1 | 4.39
46 | Cn1ccnc1SCC(=O)n1c2c(c3ccccc31)CCCC2 | 1.84
47 | CCCNC(=O)COC(=O)c1ccccc1OCC(=O)Nc1ccc(Br)cc1 | 8.14
48 | O=C1/C(=C\c2ccc(Br)o2)Cc2ccccc21 | 8.75
49 | CCOC(=O)c1c(-c2ccccc2)csc1NC(=O)c1cc(S(=O)(=O)N2CCOCC2)ccc1C | 10.4
50 | Cc1ccc(C)c(N2N=C(C(=O)Nc3ccccc3N3CCCC3)CCC2=O)c1 | 13.9
51 | CC1(C)CC(=O)C/C(=N\NC(=O)C2CC2c2ccccc2)C1.I (centres unmarked) | 15.2
52 | Cc1ccc(NC(=O)N2CCCCCC2)cc1C | 9.64
53 | CC(C)Cc1ccc(C(C)C(=O)Nc2ncccn2)cc1 (centres unmarked) | 8.22
54 | O=C(NCCCn1ccnc1)c1sc2cccc(F)c2c1Cl | -19
55 | COc1ccc(CCNC(=O)[C@H](CC(C)C)NC(=O)N2CCn3c2nc2ccccc23)cc1OC | 10.8
56 | O=C(CN1C(=O)NC2(CCCC2)C1=O)Nc1ccc(OC(F)(F)F)cc1 | 5.24
